According to ChEMBL document CHEMBL4689842, “EUbOPEN Chemogenomics Library wave 1” (2021):
Some entries of the source have several records that differ or are many. The list is limited to them. An entry can have further records. Results that share an entry repeat one measurement across runs, samples, wells, individuals or studies.

Experiments:
Type in all cases: toxicity, cell-based
HEK-293T = assay: Multiplex assay against HEK293T; conditions: human;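 for Population Tubulin-Different-Phenotype (%): share of the cells with healthy nuclei that show this phenotype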
Summary of the method: (§1)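 Compound was added to live cells that had been stained at seeding with Hoechst33342, BioTracker Green Microtubule Cytoskeleton Dye, MitoTracker Red and Annexin V Alexa Fluor 680, and imaging followed on a CQ1 microscope at 37°C and 5% CO2. CellPathfinder machine-learning gating divided cells into Hoechst high-intensity objects or normal cells, normal cells into healthy, pyknosed or fragmented nuclei, and pyknosed cells into mitotic or apoptotic. Tubulin, mitochondrial-mass and membrane-permeability phenotypes are per cents of healthy-nucleus cells.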

Fibroblast = assay: Multiplex assay against human fibroblast; summary of the method: as §1
U2OS = assay: Multiplex assay against U2OS; conditions: human; summary of the method: as §1
[1] = 12 h, 1 µM, compound concentration 1 uM, replicate 1
[2] = 12 h, 1 µM, compound concentration 1 uM, replicate 2
[3] = 12 h, 10 µM, compound concentration 10 uM, replicate 1
[4] = 12 h, 10 µM, compound concentration 10 uM, replicate 2
[5] = 24 h, 1 µM, compound concentration 1 uM, replicate 1
[6] = 24 h, 1 µM, compound concentration 1 uM, replicate 2
[7] = 24 h, 10 µM, compound concentration 10 uM, replicate 1
[8] = 24 h, 10 µM, compound concentration 10 uM, replicate 2
[9] = 48 h, 10 µM, compound concentration 10 uM, replicate 2
[10] = 48 h, 1 µM, compound concentration 1 uM, replicate 2
[11] = 48 h, 10 µM, compound concentration 10 uM, replicate 1

## CS(=O)(=O)N1CCCC(NC(=O)[C@H](CCC2CCCCC2)NC(=O)c2ccc(CNC(=O)c3cnc4ccccn34)cc2)C1 (stereo not given in full) [SR-302]
HEK-293T; [1]
  Population Healthy Nuclei (%): 27, 35, 18, 73%
  Population Mitochondria Different-Phenotype (%): 84, 80, 77, 3%
  Population Pyknosed Nuclei (%): 55%, 68%, 14%
  Population Tubulin-Different-Phenotype (%): 38, 41, 52, 3%
HEK-293T; [2]
  Population Membrane Permeable-Phenotype (%): 13, 5, 4, 1%
  Population Mitochondria Different-Phenotype (%): 26%, 19%, 6%
  Population Pyknosed Nuclei (%): 53, 50, 46, 4%
  Population Tubulin-Different-Phenotype (%): 19, 13, 28, 7%
  Total Cell Count: 169, 288, 267, 1738
HEK-293T; [3]
  Population Healthy Nuclei (%): 16, 17, 15, 70%
  Population Mitochondria Different-Phenotype (%): 100%, 96%, 9%
  Population Pyknosed Nuclei (%): 70, 69, 68, 16%
  Population Tubulin-Different-Phenotype (%): 100, 98, 96, 18%
HEK-293T; [4]
  Population Apoptotic (%): 47, 48, 50, 7%
  Population Fragmented Nuclei (%): 2, 8, 3, 7%
  Population Hoechst High Intensity Objects (%): 4, 9, 5, 2%
  Population Mitochondria Different-Phenotype (%): 85, 79, 90, 18%
  Population Pyknosed Nuclei (%): 66, 55, 59, 5%
  Total Cell Count: 216, 147, 248, 1427
HEK-293T; [5]
  Population Healthy Nuclei (%): 27, 35, 20, 82%
  Population Mitochondria Different-Phenotype (%): 75, 72, 73, 3%
  Population Pyknosed Nuclei (%): 55, 53, 66, 5%
  Population Tubulin-Different-Phenotype (%): 32, 35, 42, 8%
  Total Cell Count: 263, 549, 323, 927
HEK-293T; [6]
  Population Apoptotic (%): 23%, 24%, 6%
  Population Fragmented Nuclei (%): 4%, 7%, 26%
  Population Hoechst High Intensity Objects (%): 4, 2, 3, 1%
  Population Mitochondria Different-Phenotype (%): 19, 18, 1, 35%
  Population Pyknosed Nuclei (%): 32, 28, 2, 29%
  Population Tubulin-Different-Phenotype (%): 24, 18, 9, 43%
  Total Cell Count: 207, 380, 2857, 321
HEK-293T; [7]
  Population Healthy Nuclei (%): 19, 13, 18, 80%
  Population Membrane Permeable-Phenotype (%): 3%, 2%, 10%
  Population Mitochondria Different-Phenotype (%): 98, 100, 97, 6%
  Population Pyknosed Nuclei (%): 62, 68, 60, 8%
  Population Tubulin-Different-Phenotype (%): 96, 100, 92, 31%
HEK-293T; [8]
  Population Apoptotic (%): 5%, 53%, 62%
  Population Hoechst High Intensity Objects (%): 1, 2, 8, 4%
  Population Mitochondria Different-Phenotype (%): 95, 8, 86, 96%
  Population Pyknosed Nuclei (%): 51, 4, 43, 46%
  Total Cell Count: 240, 2193, 163, 265
HEK-293T; [9]
  Population Hoechst High Intensity Objects (%): 2%, 4%, 7%
Fibroblast; [1]
  Population Tubulin-Different-Phenotype (%): 25, 40, 56, 2%
  Total Cell Count: 69, 83, 91, 305
Fibroblast; [2]
  Population Fragmented Nuclei (%): 55, 8, 12, 10%
  Population Hoechst High Intensity Objects (%): 24, 6, 16, 2%
  Population Tubulin-Different-Phenotype (%): 6, 17, 32, 14%
Fibroblast; [3]
  Population Mitochondria Different-Phenotype (%): 28, 60, 52, 7%
Fibroblast; [4]
  Population Fragmented Nuclei (%): 48, 12, 9, 6%
  Population Hoechst High Intensity Objects (%): 33, 7, 6, 3%
  Population Mitochondria Different-Phenotype (%): 6, 77, 89, 88%
  Population Mitotic Cells (%): 50, 0, 28, 33%
Fibroblast; [5]
  Population Membrane Permeable-Phenotype (%): 33, 22, 27, 8%
  Population Tubulin-Different-Phenotype (%): 46, 55, 29, 1%
  Total Cell Count: 63, 98, 87, 368
Fibroblast; [6]
  Population Apoptotic (%): 58, 50, 14, 33%
  Population Fragmented Nuclei (%): 50%, 7%, 3%
  Population Healthy Nuclei (%): 28, 84, 88, 93%
  Population Hoechst High Intensity Objects (%): 23% and 4%
  Population Pyknosed Nuclei (%): 21%, 8%, 2%
  Population Tubulin-Different-Phenotype (%): 6, 27, 16, 11%
Fibroblast; [7]
  Population Membrane Permeable-Phenotype (%): 50, 35, 17, 10%
  Population Mitochondria Different-Phenotype (%): 43, 50, 52, 14%
  Total Cell Count: 43, 83, 118, 217
Fibroblast; [8]
  Population Fragmented Nuclei (%): 51, 7, 1, 9%
  Population Healthy Nuclei (%): 24%, 77%, 82%
  Population Hoechst High Intensity Objects (%): 37, 11, 4, 5%
Fibroblast; [10]
  Population Apoptotic (%): 100%, 0%, 50%
  Population Mitotic Cells (%): 0%, 100%, 50%
  Population Pyknosed Nuclei (%): 1%, 2%, 4%
  Population Tubulin-Different-Phenotype (%): 51%, 15%, 18%
Fibroblast; [11]
  Population Membrane Permeable-Phenotype (%): 43%, 28%, 11%
  Population Mitotic Cells (%): 46%, 12%, 50%
  Population Pyknosed Nuclei (%): 20%, 12%, 38%
Fibroblast; [9]
  Population Hoechst High Intensity Objects (%): 1% and 9%
U2OS; [1]
  Population Hoechst High Intensity Objects (%): 4, 2, 3, 7%
  Population Mitochondria Different-Phenotype (%): 26, 6, 8, 11%
U2OS; [2]
  Population Apoptotic (%): 0%, 40%, 33%
  Population Mitochondria Different-Phenotype (%): 27%, 7%, 9%
U2OS; [3]
  Population Mitochondria Different-Phenotype (%): 79, 72, 74, 20%
  Population Pyknosed Nuclei (%): 18, 16, 13, 2%
  Population Tubulin-Different-Phenotype (%): 84, 75, 83, 15%
U2OS; [4]
  Population Apoptotic (%): 100, 71, 66, 20%
  Population Mitochondria Different-Phenotype (%): 77, 89, 88, 23%
  Population Mitotic Cells (%): 0, 28, 33, 80%
  Population Tubulin-Different-Phenotype (%): 79, 91, 92, 19%
U2OS; [5]
  Population Mitochondria Different-Phenotype (%): 20, 5, 6, 11%
  Population Tubulin-Different-Phenotype (%): 14%, 44%, 35%
U2OS; [6]
  Population Apoptotic (%): 33%, 50%, 14%
  Population Hoechst High Intensity Objects (%): 10%, 14%, 4%
  Population Mitochondria Different-Phenotype (%): 24, 8, 7, 4%
U2OS; [7]
  Population Mitochondria Different-Phenotype (%): 50, 66, 64, 13%
  Population Pyknosed Nuclei (%): 17%, 16%, 4%
  Population Tubulin-Different-Phenotype (%): 47%, 61%, 12%
U2OS; [8]
  Population Mitochondria Different-Phenotype (%): 83, 75, 71, 24%
  Population Tubulin-Different-Phenotype (%): 72, 56, 57, 18%
U2OS; [10]
  Population Apoptotic (%): 55%, 8%, 33%
U2OS; [9]
  Population Mitotic Cells (%): 23%, 53%, 10%

## COc1ccccc1-c1cc(Nc2cccc(CS(N)(=O)=O)c2)ncn1
HEK-293T; [8]
  Population Fragmented Nuclei (%): 31% and 8%
  Population Mitochondria Different-Phenotype (%): 2% and 17%
Fibroblast; [3]
  Population Tubulin-Different-Phenotype (%): 18% and 2%
Fibroblast; [7]
  Population Tubulin-Different-Phenotype (%): 2% and 27%
U2OS; [3]
  Population Hoechst High Intensity Objects (%): 6% and 1%
U2OS; [4]
  Population Pyknosed Nuclei (%): 14% and 3%
U2OS; [7]
  Population Fragmented Nuclei (%): 10% and 3%
  Population Pyknosed Nuclei (%): 10% and 3%
U2OS; [8]
  Population Fragmented Nuclei (%): 22% and 5%
  Population Hoechst High Intensity Objects (%): 21% and 6%
  Population Membrane Permeable-Phenotype (%): 20% and 6%
  Population Pyknosed Nuclei (%): 13% and 2%
